Results from publication PMC6200743.
No constants are given. Whether binding was seen depends on the method and setting. Binding seen in cells or lysates may run through a third protein. Some results given as binding are weak or reduced against the parent protein; the word gives no strength. For some of these results: Sequences can lack the tags named with a protein.

The chains behind the UniProt entries cited, without tags or fusion partners. Where a name states a change or a piece, a line headed by the entry shows the natural chain unless it says otherwise.
UniProt Q01650: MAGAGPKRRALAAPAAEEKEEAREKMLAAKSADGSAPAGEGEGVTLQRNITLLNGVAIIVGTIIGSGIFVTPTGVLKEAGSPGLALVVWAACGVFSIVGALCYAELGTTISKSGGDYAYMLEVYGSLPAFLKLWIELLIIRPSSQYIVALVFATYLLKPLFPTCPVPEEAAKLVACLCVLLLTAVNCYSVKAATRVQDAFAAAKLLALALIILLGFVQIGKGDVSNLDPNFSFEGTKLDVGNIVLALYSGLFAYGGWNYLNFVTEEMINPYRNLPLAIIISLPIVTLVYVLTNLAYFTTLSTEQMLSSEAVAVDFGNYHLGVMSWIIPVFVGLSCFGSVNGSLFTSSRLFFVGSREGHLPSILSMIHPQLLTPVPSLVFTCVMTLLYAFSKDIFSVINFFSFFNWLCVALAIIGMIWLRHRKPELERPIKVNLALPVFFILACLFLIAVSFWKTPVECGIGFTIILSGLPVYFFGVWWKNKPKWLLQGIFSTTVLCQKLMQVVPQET

Key:
[1] = target: Kv1.2-YFPC (rat) (UniProt P63142); assay: split reporter; split YFP (YFPN 1-157, YFPC 158-239) fused to two of Kv1.2, Slc7a5 and Slc3a2, the third tagged with LSS-mOrange (or LSS-mOrange alone); HEK cells, 1:1:1 transfection, 72 h, read by flow cytometry
[2] = target: Kv1.2-nanoluc (rat) (UniProt P63142); assay: FRET or BRET; live HEK293 cells; donor Kv1.2-nanoluc, acceptors tagged with mEGFP; emission spectra 400-700 nm, mEGFP component (area 480-600 nm) normalised to the mEGFP-Kv1.2 positive control; some samples with co-expressed Slc3a2
[3] = target: Slc7a5-YFPC (UniProt Q01650); assay: split reporter; split YFP (YFPN 1-157, YFPC 158-239) fused to two of Kv1.2, Slc7a5 and Slc3a2, the third tagged with LSS-mOrange (or LSS-mOrange alone); HEK cells, 1:1:1 transfection, 72 h, read by flow cytometry
[4] = target: T1, Kv1.2-nanoluc (rat), P63142; assay: FRET or BRET; live HEK293 cells; donor Kv1.2-nanoluc, acceptors tagged with mEGFP; emission spectra 400-700 nm, mEGFP component (area 480-600 nm) normalised to the mEGFP-Kv1.2 positive control; some samples with co-expressed Slc3a2; settings: remark: other sources report otherwise
T1 chain: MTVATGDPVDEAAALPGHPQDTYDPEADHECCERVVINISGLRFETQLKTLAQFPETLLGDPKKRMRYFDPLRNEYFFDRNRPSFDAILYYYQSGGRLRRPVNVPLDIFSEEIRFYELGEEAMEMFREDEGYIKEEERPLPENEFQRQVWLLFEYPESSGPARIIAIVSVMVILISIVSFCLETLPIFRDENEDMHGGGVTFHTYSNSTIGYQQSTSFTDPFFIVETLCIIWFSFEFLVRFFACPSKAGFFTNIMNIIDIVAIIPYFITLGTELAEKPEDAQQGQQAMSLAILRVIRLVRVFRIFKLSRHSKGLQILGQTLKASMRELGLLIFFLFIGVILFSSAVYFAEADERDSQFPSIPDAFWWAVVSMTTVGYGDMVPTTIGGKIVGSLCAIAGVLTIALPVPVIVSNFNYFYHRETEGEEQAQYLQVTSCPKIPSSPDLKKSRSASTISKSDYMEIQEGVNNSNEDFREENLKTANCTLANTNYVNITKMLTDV

## Slc7a5-YFPN (from UniProt Q01650 1-507)
[1]
  binding: binds

## mEGFP-Slc7a5[A246V] (from UniProt Q01650 1-507)
[2]
  binding: no binding

## YFPN-Slc3a2 (from UniProt P08195 1-529)
[3]
  binding: binds

## mEGFP-Slc7a5 (from UniProt Q01650 1-507)
[2]
  binding: binds

## mEGFP-Slc7a5[P375L] (from UniProt Q01650 1-507)
[2]
  binding: no binding

B1: Kv1.2-nanoluc, P63142 1-499 (protein)
chain: T1 chain
[4]
  binding: binds

B2: mEGFP-Slc1a5 (protein, UniProt Q15758 1-541)
chain: MVADPPRDSKGLAAAEPTANGGLALASIEDQGAAAGGYCGSRDQVRRCLRANLLVLLTVVAVVAGVALGLGVSGAGGALALGPERLSAFVFPGELLLRLLRMIILPLVVCSLIGGAASLDPGALGRLGAWALLFFLVTTLLASALGVGLALALQPGAASAAINASVGAAGSAENAPSKEVLDSFLDLARNIFPSNLVSAAFRSYSTTYEERNITGTRVKVPVGQEVEGMNILGLVVFAIVFGVALRKLGPEGELLIRFFNSFNEATMVLVSWIMWYAPVGIMFLVAGKIVEMEDVGLLFARLGKYILCCLLGHAIHGLLVLPLIYFLFTRKNPYRFLWGIVTPLATAFGTSSSSATLPLMMKCVEENNGVAKHISRFILPIGATVNMDGAALFQCVAAVFIAQLSQQSLDFVKIITILVTATASSVGAAGIPAGGVLTLAIILEAVNLPVDHISLILAVDWLVDRSCTVLNVEGDALGAGLLQNYVDRTESRSTEPELIQVKSELPLDPLPVPTEEGNPLLKHYRGPAGDATVASEKESVM
[2]
  binding: no binding
